# Assay results as given in PubChem BioAssay (NCATS).
# Where “and” joins values, the source holds several entries; their conditions need not be identical. Equal values may be shown once. Inconclusive means that the source gave no clear call. Such entries were picked first, then a sample of the others. For some assays here: Potencies of inconclusive entries are doubtful fits and often do not repeat. Calls of active or inactive are those of the source. Unless noted, calls come from the whole dose curve; as a rule, active = well fitted curve in the direction sought with a large enough effect; inconclusive = small, poorly fitted or top-dose-only effect, or another doubt; inactive = no such curve, though single readings can be large; an effect the other way counts as inactive or inconclusive.
# Legend:
# [1] = qHTS Screen of the MIPE 4.0 Collection Against Ewings Sarcoma (RDES) (AID 1259252); conditions: RD-ES Ewing sarcoma viability, CellTiter-Glo, 48 h; series mostly up to 45.8 µM; note: nearly all actives have a fitted effect of over 35% in size; note: potency is the fitted concentration of half-maximal effect;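 for viability (percent of control): 100% = DMSO-treated cells and 0% = medium-only wells without cells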
# Method in brief: (§1)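 Here, cells in 5% FBS RPMI were exposed for two days (48 h) to compound dilutions added four hours after plating. ATP-based CellTiter-Glo luminescence measured viability, normalized to vehicle and no-cell blanks.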
# [2] = qHTS Screen of the MIPE 4.0 Collection Against Ewings Sarcoma (TC32) (AID 1259256); conditions: TC32 Ewing sarcoma viability, CellTiter-Glo, 48 h; series mostly up to 45.8 µM; note: nearly all actives have a fitted effect of over 45% in size; note: potency is the fitted concentration of half-maximal effect;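 for viability (percent of control): 100% = DMSO-treated cells and 0% = medium-only wells without cells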
# Method in brief: as §1
# [3] = P-glycoprotein substrates identified in KB-3-1 adenocarcinoma cell line, qHTS therapeutic library screen (AID 1346986); conditions: KB-3-1 parental cells viability, CellTiter-Glo, 72 h; series mostly up to 44.5 µM; note: nearly all actives have a fitted effect of over 60% in size
# Method in brief: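 Using luminescence to quantify ATP, parental and P-gp-overexpressing KB cells were compared after 72 h compound titration. KB-8-5-11 was also run with the P-gp inhibitor tariquidar.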
# [4] = target: Atrial natriuretic peptide receptor 2 (Homo sapiens) (UniProt P20594); test: Natriuretic polypeptide receptor (hNpr2) antagonism - Pilot subtype selectivity assay (AID 1347050; calls by dose curve; note: potency is the fitted concentration of half-maximal effect); conditions: NPR2-expressing cells, cGMP antagonist-mode read-out; series mostly up to 38.3 µM
# Method in brief: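 Read-out: GloSensor luminescence (CCD imager), baseline vs post-stimulation. HEK293 cells expressing hNpr2; compounds pre-incubated 30-50 min at ambient temperature; hNppC 1 nM final, 20 min.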
# [5] = qHTS Assay for Identifying Gametocytocidal Compounds (AID 743244); note: potency is the fitted concentration of half-maximal effect;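 for max response: % is set by controls: 0 for no effect and ±100 for the full control effect; actives lower the fluorescent signal which means gametocytes are killed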; conditions: P. falciparum 3D7 stage III-V gametocytes, alamarBlue, 72 h; max response: active compounds read low
# Method in brief: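 Stage III-V P. falciparum 3D7 gametocytes, 20,000 per well, were exposed to compounds for 72 h at 37C, 5% CO2. AlamarBlue was then added for 24 h and viability was read as fluorescence at Ex 525/Em 598 nm.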
# [6] = P-glycoprotein substrates identified in KB-8-5-11 adenocarcinoma cell line, qHTS therapeutic library screen (AID 1346987); conditions: KB-8-5-11 (P-gp overexpressing) viability, CellTiter-Glo, 72 h; series mostly up to 44.5 µM; note: nearly all actives have a fitted effect of over 65% in size; note: potency is the fitted concentration of half-maximal effect
# Method in brief: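 In this qHTS, P-gp-rich KB-8-5-11 cells received library compounds across a concentration range. Viability was quantified by luminescence after 72 h at 37 degree C.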
# [7] = Identifying Small Molecule Inhibitors of Pancreatic Cancer Stem Cells (A2780, Spheroid) (AID 1259357); conditions: Potency: A2780 spheroid viability; viability (percent of control): at 46.1 µM (top of the series);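 note: compound exposure lasted 48 h before the ATP luminescence read; 100% = DMSO treated cells and 0% = wells without cells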
# Method in brief: (§2)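 Adherent (2D) versus sphere (3D) formats; spheres generated 14 d in SCM beforehand. Compound transferred by pin tool after 4 h, 48 h incubation, CellTiter-Glo endpoint.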
# [8] = Identifying Small Molecule Inhibitors of Pancreatic Cancer Stem Cells (Panc1, Spheroid) (AID 1259359); conditions: Panc1 spheroid cancer stem cell viability; viability, % of control: at 46.1 µM (top of the series);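 note: potency is the fitted concentration of half-maximal effect; compound exposure lasted 48 h before reading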
# Method in brief: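 Cytotoxicity read by CellTiter-Glo luminescence after 48 h compound exposure at 37C; percent activity scaled between DMSO-treated cells and cell-free wells. Spheroid formats used cells pre-formed 14 days in stem cell media on hydrogel.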
# [9] = Identifying Small Molecule Inhibitors of Pancreatic Cancer Stem Cells (SN12C, Spheroid) (AID 1259360); conditions: Potency: SN12C spheroid viability; series mostly up to 46.1 µM; note: potency is the fitted concentration of half-maximal effect
# Method in brief: as §2
# [10] = Identifying Small Molecule Inhibitors of Pancreatic Cancer Stem Cells (Panc1, Adherent) (AID 1259362); conditions: Potency: viability; viability, % of control: at 46.1 µM (top of the series);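 note: compound exposure lasted 48 h before the viability read; plate controls were DMSO-treated cells for no effect and cell-free media wells for full effect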
# Method in brief: as §2
# Tags give direction and shape of the fitted curve.
# UniProt P20594, sequence (P20594 whole entry, looked up): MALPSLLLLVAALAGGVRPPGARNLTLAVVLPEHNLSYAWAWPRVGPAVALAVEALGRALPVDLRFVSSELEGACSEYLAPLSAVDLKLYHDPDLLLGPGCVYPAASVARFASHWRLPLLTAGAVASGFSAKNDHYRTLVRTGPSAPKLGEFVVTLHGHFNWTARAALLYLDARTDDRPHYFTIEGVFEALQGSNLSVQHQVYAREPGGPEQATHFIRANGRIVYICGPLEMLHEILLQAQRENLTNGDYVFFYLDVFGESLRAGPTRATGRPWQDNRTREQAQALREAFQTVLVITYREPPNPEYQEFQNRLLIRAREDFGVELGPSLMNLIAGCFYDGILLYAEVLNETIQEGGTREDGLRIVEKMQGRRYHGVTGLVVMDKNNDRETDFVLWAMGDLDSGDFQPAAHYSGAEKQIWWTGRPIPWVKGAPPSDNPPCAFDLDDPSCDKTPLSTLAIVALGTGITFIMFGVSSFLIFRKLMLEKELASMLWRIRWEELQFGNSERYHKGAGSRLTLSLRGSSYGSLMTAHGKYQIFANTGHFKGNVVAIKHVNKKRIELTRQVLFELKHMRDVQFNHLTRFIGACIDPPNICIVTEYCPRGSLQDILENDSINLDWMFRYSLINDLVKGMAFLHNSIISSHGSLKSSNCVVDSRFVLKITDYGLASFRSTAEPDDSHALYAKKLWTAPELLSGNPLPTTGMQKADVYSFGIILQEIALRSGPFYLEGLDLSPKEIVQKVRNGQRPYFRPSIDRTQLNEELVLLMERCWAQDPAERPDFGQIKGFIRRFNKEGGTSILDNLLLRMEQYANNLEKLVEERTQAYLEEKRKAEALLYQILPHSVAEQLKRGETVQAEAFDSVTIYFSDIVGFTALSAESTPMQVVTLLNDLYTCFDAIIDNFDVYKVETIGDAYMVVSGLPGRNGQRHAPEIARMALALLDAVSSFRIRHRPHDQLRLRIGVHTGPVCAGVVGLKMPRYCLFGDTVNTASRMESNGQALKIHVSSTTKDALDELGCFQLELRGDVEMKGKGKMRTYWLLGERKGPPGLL
smiles,measurement,setting,value
O=c1[nH]c(=O)n([C@H]2C[C@@H](O)[C@@H](CO)O2)cc1C=CBr,Potency,[1],inactive
same,Potency,[2],inactive
same,Potency,[3],inactive
same,Potency,[4],inactive
O=C1N(c2ccccc2)c2ccccc2C1(Cc1ccncc1)Cc1ccncc1,Potency,[1],"inconclusive: 14.8 µM [inhibitor, partial curve]"
same,Potency,[2],inactive
same,Potency,[4],"inconclusive: 14.7 µM [inhibitor, single point]"
Cc1ccc(N(CC2=NCCN2)c2cccc(O)c2)cc1,Potency,[5],"inconclusive: 5.62 µM [inhibitor, single point]"
same,max response,[5],inactive: 9.03%
same,Potency,[1],inactive
same,Potency,[2],active: 16.6 µM
CN(C)C(=O)[C@H](O)[C@H](Cc1ccccc1)NC(=O)c1cc2cc(Cl)ccc2[nH]1,Potency,[1],active: 18.7 µM
same,Potency,[2],"inconclusive: 29.6 µM [inhibitor, single point]"
same,Potency,[6],"inconclusive: 23.1 µM [inhibitor, partial curve, poor fit]"
CCOc1cc(CC(=O)N[C@@H](CC(C)C)c2ccccc2N2CCCCC2)ccc1C(=O)O,Potency,[1],inactive
same,Potency,[2],inactive
same,Potency,[3],inactive
CCCCCCCCCCCCCC(=O)N[C@H](CO)[C@H](O)c1ccc([N+](=O)[O-])cc1,Potency,[1],inactive
same,Potency,[2],"inconclusive: 13.2 µM [inhibitor, partial curve, poor fit]"
same,Potency,[7],inactive
same,Potency,[8],"inconclusive: 0.0187 µM [rising, full curve, poor fit]"
same,Potency,[9],"inconclusive: 23.5 µM [cytotoxic, single point]"
same,Potency,[10],inactive
same,Potency,[6],inactive
O=C1CCCC(=O)C1C(=O)c1ccc(C(F)(F)F)cc1[N+](=O)[O-],Potency,[1],"inconclusive: 33.2 µM [inhibitor, single point]"
same,Potency,[2],"inconclusive: 33.2 µM [inhibitor, single point]"
same,Potency,[6],inactive
Cc1cccc2c1CC[C@H](CN1CCC(c3c(Cl)cccc3Cl)CC1)C[C@@H]2O,Potency,[1],"inconclusive: 11.8 µM [inhibitor, partial curve]"
same,Potency,[2],"inconclusive: 5.26 µM [inhibitor, full curve]"
same,Potency,[6],"inconclusive: 29.6 µM [inhibitor, single point] and inconclusive: 18.4 µM [inhibitor, partial curve]"
O=C(C=Cc1ccc(/C=C/C(=O)Nc2ccc(C3=NCCN3)cc2)cc1)Nc1ccc(C2=NCCN2)cc1,Potency,[1],inactive
same,Potency,[2],inactive
same,Potency,[7],inactive
same,Potency,[8],"inconclusive: 1.05 µM [rising, full curve, poor fit]"
same,"viability, % of control",[10],inconclusive: 115%
